According to the supplement of paper PMC4967469:
IC50 is the fitted dose that halves viability relative to control wells, and lower means more sensitive; fits outside the tested doses are given as limits. AUC is the area under the same curve over the 256-fold range up to the top dose, as a fraction; the more sensitive the line, the further below 1. Any top dose called inferred is not printed in the source and was worked back from the curve model.

Compound: Cc1ccc(-c2c(C(=O)CF)n(CCCO)c3ncnc(N)c23)cc1 [FMK]
Experiment: Viability of human cancer cell lines after 72 h of drug (GDSC screen)
Conditions: top dose inferred
Experimental: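 Human cancer cell lines in 384-well plates, medium with 10% serum, drug for 72 h over a 256-fold dose range (nine 2-fold or five 4-fold steps up to the top dose). Adherent lines were fixed and stained with the nucleic acid dye Syto60, suspension lines read with resazurin; signal relative to control wells, capped at 0 and 100%. One two-parameter sigmoid per drug and line, fitted in a mixed model over all curves with the slope shared within a line.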

Cell Line	AUC	IC50 [µM]
OCUM-1 (stomach, adherent, top dose 20 µM)	0.987	> 20
OE21 (oesophagus, adherent, top dose 20 µM)	0.966	> 20
OE33 (oesophagus, adherent, top dose 20 µM)	0.967	> 20
OMC-1 (cervix, adherent, top dose 20 µM)	0.985	> 20
ONS-76 (medulloblastoma, adherent, top dose 20 µM)	0.957	> 20
OPM-2 (myeloma, suspension, top dose 20 µM)	0.958	> 20
OS-RC-2 (kidney, adherent, top dose 20 µM)	0.965	> 20
OSC-19 (head and neck, adherent, top dose 20 µM)	0.979	> 20
OSC-20 (head and neck, adherent, top dose 20 µM)	0.969	> 20
OV-90 (ovary, adherent, top dose 20 µM)	0.982	> 20
OVCAR-3 (ovary, adherent, top dose 20 µM)	0.986	> 20
OVCAR-4 (ovary, adherent, top dose 20 µM)	0.947	> 20
OVCAR-5 (ovary, adherent, top dose 20 µM)	0.955	> 20
OVCAR-8 (ovary, adherent, top dose 20 µM)	0.987	> 20
OVISE (ovary, adherent, top dose 20 µM)	0.958	> 20
OVKATE (ovary, adherent, top dose 20 µM)	0.968	> 20
OVMIU (ovary, adherent, top dose 20 µM)	0.944	> 20
OVTOKO (ovary, adherent, top dose 20 µM)	0.964	> 20
P12-ICHIKAWA (T-cell lymphoblastic leukaemia, suspension, top dose 20 µM)	0.951	> 20
P30-OHK (lymphoblastic leukaemia, suspension, top dose 20 µM)	0.973	> 20
P31-FUJ (acute myeloid leukaemia, suspension, top dose 20 µM)	0.996	> 20

Cell Line	AUC	IC50 [µM]
P32-ISH (Burkitt lymphoma, suspension, top dose 20 µM)	0.994	> 20
PA-1 (ovary, adherent, top dose 20 µM)	0.975	> 20
PA-TU-8902 (pancreas, adherent, top dose 20 µM)	0.965	> 20
PA-TU-8988T (pancreas, adherent, top dose 20 µM)	0.987	> 20
PANC-02-03 (pancreas, adherent, top dose 20 µM)	0.963	> 20
PANC-03-27 (pancreas, adherent, top dose 20 µM)	0.962	> 20
PANC-04-03 (pancreas, adherent, top dose 10.24 µM)	0.967	> 10.2
PANC-08-13 (pancreas, adherent, top dose 20 µM)	0.932	> 20
PANC-10-05 (pancreas, adherent, top dose 20 µM)	0.936	> 20
PC-3 (prostate, adherent, top dose 20 µM)	0.978	> 20
PC-3 [JPC-3] (lung adenocarcinoma, adherent, top dose 20 µM)	0.981	> 20
PC-14 (lung adenocarcinoma, adherent, top dose 20 µM)	0.97	> 20
PCI-4B (head and neck, adherent, top dose 20 µM)	0.965	> 20
PCI-6A (head and neck, adherent, top dose 20 µM)	0.968	> 20
PCI-15A (head and neck, adherent, top dose 20 µM)	0.977	> 20
PCI-30 (head and neck, adherent, top dose 20 µM)	0.983	> 20
PCI-38 (head and neck, adherent, top dose 20 µM)	0.984	> 20
PE/CA-PJ15 (head and neck, adherent, top dose 20 µM)	0.982	> 20
PF-382 (T-cell lymphoblastic leukaemia, suspension, top dose 20 µM)	0.878	15.9
PFSK-1 (medulloblastoma, adherent, top dose 20 µM)	0.985	> 20
PL4 (pancreas, adherent, top dose 20 µM)	0.98	> 20

Cell Line	AUC	IC50 [µM]
PL18 (pancreas, adherent, top dose 20 µM)	0.988	> 20
PL-21 (acute myeloid leukaemia, suspension, top dose 20 µM)	0.901	> 20
PSN1 (pancreas, adherent, top dose 20 µM)	0.956	> 20
QGP-1 (pancreas, adherent, top dose 20 µM)	0.962	> 20
QIMR-WIL (acute myeloid leukaemia, suspension, top dose 20 µM)	0.955	> 20
RC-K8 (B-cell lymphoma, suspension, top dose 20 µM)	0.992	> 20
RCC10RGB (kidney, adherent, top dose 10.24 µM)	0.94	> 10.2
RCM-1 (large intestine, adherent, top dose 20 µM)	0.974	> 20
RD (rhabdomyosarcoma, adherent, top dose 20 µM)	0.985	> 20
REH (B-cell leukaemia, suspension, top dose 20 µM)	0.943	> 20
RERF-GC-1B (stomach, adherent, top dose 20 µM)	0.971	> 20
RERF-LC-KJ (lung adenocarcinoma, adherent, top dose 20 µM)	0.986	> 20
RERF-LC-Sq1 (lung squamous cell carcinoma, adherent, top dose 20 µM)	0.966	> 20
RF-48 (stomach, adherent, top dose 20 µM)	0.977	> 20
RH-1 (rhabdomyosarcoma, adherent, top dose 20 µM)	0.987	> 20
RKN (ovary, adherent, top dose 20 µM)	0.978	> 20
RKO (large intestine, adherent, top dose 20 µM)	0.961	> 20
RL95-2 (endometrium, adherent, top dose 20 µM)	0.987	> 20
RL (B-cell lymphoma, suspension, top dose 20 µM)	0.95	> 20
RMG-I (ovary, adherent, top dose 20 µM)	0.975	> 20
ROS-50 (B-cell leukaemia, suspension, top dose 20 µM)	0.972	> 20

Cell Line	AUC	IC50 [µM]
RPMI-2650 (head and neck, adherent, top dose 20 µM)	0.98	> 20
RPMI-6666 (Hodgkin lymphoma, suspension, top dose 20 µM)	0.925	> 20
RPMI-7951 (melanoma, adherent, top dose 20 µM)	0.951	> 20
RPMI-8226 (myeloma, suspension, top dose 20 µM)	0.973	> 20
RPMI-8402 (T-cell lymphoblastic leukaemia, suspension, top dose 20 µM)	0.827	9.65
RPMI-8866 (chronic myeloid leukaemia, suspension, top dose 20 µM)	0.988	> 20
RS4-11 (leukaemia, suspension, top dose 20 µM)	0.978	> 20
RT4 (bladder, adherent, top dose 10.24 µM)	0.981	> 10.2
RT-112 (bladder, adherent, top dose 20 µM)	0.983	> 20
RVH-421 (melanoma, adherent, top dose 20 µM)	0.869	> 20
RXF393 (kidney, adherent, top dose 10.24 µM)	0.965	> 10.2
Raji (Burkitt lymphoma, suspension, top dose 20 µM)	0.989	> 20
Ramos-2G6-4C10 (Burkitt lymphoma, suspension, top dose 20 µM)	0.968	> 20
SAS (head and neck, adherent, top dose 20 µM)	0.943	> 20
SBC-1 (small cell lung carcinoma, suspension, top dose 20 µM)	0.985	> 20
SBC-3 (small cell lung carcinoma, adherent, top dose 20 µM)	0.931	> 20
SBC-5 (small cell lung carcinoma, adherent, top dose 20 µM)	0.993	> 20
SCC90 (head and neck, adherent, top dose 20 µM)	0.855	> 20
